According to a collection of fitness landscapes (doi:10.1016/j.celrep.2020.107928):
The full ranking holds about 81,000 sequences; the median of “one-hybrid fitness for binding NBS DNA” is about -0.1, and the highest 2% start at about 0.36. The list shows a part of the results.

B1: Caulobacter ParB omega fusion; a variant is named by its letters at X, in order, B8GW30 (parent)
chain: MESVVVGEPGMSEGRRGLGRGLSALLGEVDAAPAQAPGEQLGGSREAPIEILQRNPDQPRRTFREEDLEDLSNSIREKGVLQPILVRPSPDTAGEYQIVAGERAWRAAQRAGLKTVPIMVRELDDLAVLEIGIIENVQRADLNVLEEALSYKVLMEKFERTQENIAQTIGKSXSHVANXMRLLXLPDEVQSYLVSGELTAXHARAIAAAADPVALAKQIIEGGLSVRETEALARKAPNLSAGKSKGGRPPRVKDTDTQALESDLSSVLGLDVSIDHRGSTGTLTITYATLEQLDDLCNRLTRGI

Variants of: B1
Test: one-hybrid fitness for binding NBS DNA (the Noc-binding site; scaled: cognate 1, non-cognate 0); higher = stronger binding
Conditions: with NBS DNA site
How it was run: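 The reporter was HIS3, with the binding site 19 bp from the promoter, in E. coli USO used for bacterial one-hybrid selection of Caulobacter ParB libraries with four specificity codons randomised. Growth was on M9 lacking histidine, with 0.1 mM IPTG and 5 mM 3-AT, for 48 hours at 37°C. Illumina sequencing covered plasmids before and after selection; three replicate libraries were pooled and variants with under 10 reads dropped. A fitness score is the log change in variant-to-wild-type read ratio, rescaled to the cognate and non-cognate references.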

one-hybrid fitness for binding NBS DNA, 0.267:
QMYA

one-hybrid fitness for binding NBS DNA, ≤ 0.2:
QAIM
FMLV
RPTW
SICD
RSMQ
FTDG
LCAR
AHMD
NSVY
IDSS
TGNY
LTTS
WIIF
LLCA
DPNV
IIMV
SKCE
KGPQ
LDIG
NRPM
NEQC
CRCS
PWHG
AVHS
DLMV
LADD
RVIL
RFSK
DMAG
GCPG
AKHI
SQPM
TYAW
DTCS
LMCC
FMGR
HGWT
APCA
ERQL
LYHP
IMCV
AEAD
GCIT
AGPN
FLYT
ITCR
KGHG
YFDI
FARS
DFDS
CPGR
DTNG
KLIL
VAVG
QKNG
NNGV
EEVR
ASRQ
VWHS
FKSL
RQDA
VMVR
SLCT
RYSL
PNHS
ERKY
RTKF
SMAN
GVVS
MSRT
RMYV
HTNG
IKAC
AKQC
YGFT
THHV
SNTM
STGP
MKPF
YCCS
VKRV
EQAF
ENKC
LQLI
DLTW
LNTS
MSNS
MRID
CCQY
DGHF
TLLY
DETM
LDDM
SFAP
YQGC
PEPD
NLWC
AHLD
VAMH
IEAA
PCGS
QNHG
LTAP
AMYS
GYDR
SHPH
HPEC
LNSC
MIPR
HSMV
TIYG
STEW
DEHN
AAKF
EIQC
LYKR
SFTP
GFGY
RSFF
SYPL
QPND
QLVW
PGRT
PHAF
LQKK
LRFH
SKSG
GCPS
SLGL
KPMP
EMLR
AFEM
RGRI
SDAG
PRIT
RYVP
NTGT
PNLS
LNFL
DYMG
RGKC
MCRM
HAPT
QNPS
RKCM
VSGN
CDWS
MPDT
NWVS
RAHC
CQMG
TPWY
TSCR
PAPW
GNDY
DSCS
GPQR
QASV
APSI
LPTE
HWMS
SLLD
AYIV
NHKS
IDMS
CVWV
KTNA
VETW
DMTV
VRIW
PMSR
FNVR
ACAL
IKTG
DCMR
WQMG
ETPF
GLLE
CHLS
VPSF
WCYR
TTTP
SSKS
KKMV
YNTL
PRYC
RSRG
THMS
PSVA
GCQG
SQRC

one-hybrid fitness for binding NBS DNA, 0.37:
QKRN

one-hybrid fitness for binding NBS DNA, 0.414:
QAHT

one-hybrid fitness for binding NBS DNA, 0.439:
QTKW
